Data published in PubChem BioAssay (Tox21).
Several values for one entry are separate records, joined by “and”; a condition that tells them apart may be missing. Equal values may be shown once. The inconclusive results got no clear call from the source; some entries with a clear call stand among them for comparison. For some assays here: Potencies of inconclusive entries are doubtful fits and often do not repeat. Activity calls are given as the source filed them. Unless noted, the call rests on the fitted dose curve; in most records, active means well fitted curve in the direction sought with a large enough effect in the repeat runs; inconclusive means weak or mixed curves; inactive means no such curve, though single readings can be large; an effect the other way counts as inactive or inconclusive.

What was measured:
[1] = qHTS assay to identify small molecule that activate the aryl hydrocarbon receptor (AhR) signaling pathway - cell viability counter screen (AID 743086); further: nearly all actives have a fitted effect of over 45% in size
How it was run: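 HepG2-AhR-luc (HG2L7.5c1) cells, 4000/well, treated 24 h at 37 C with compound; viability measured as CellTiter-Fluor fluorescence after 30 min in the same wells as the luciferase read.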

[2] = target: Peroxisome proliferator-activated receptor gamma (Homo sapiens) (UniProt P37231); experiment: qHTS assay to identify small molecule agonists of the peroxisome proliferator-activated receptor gamma (PPARg) signaling pathway (AID 743094; active means well fitted activation curve with a large enough effect in the signal ratio in the repeat runs, not every such curve was filed as active; inconclusive means weak or mixed curves, or effect the other way; inactive means no such curve, though single readings can be large or run the other way; the % refers to the signal ratio); settings: HEK293H PPARg-UAS-bla, beta-lactamase FRET ratio, 17 h; activation: at 57 µM (top of the series) unless noted
How it was run: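 Reporter activation was scored by fluorescence of cleaved LiveBLAzer B/G substrate (1 h, room temperature) in PPARg-bla HEK293H cells previously treated 17 h at 37C with DMSO-dissolved compounds.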

[3] = target: Peroxisome proliferator-activated receptor gamma (Homo sapiens) (UniProt P37231); experiment: qHTS assay to identify small molecule antagonists of the peroxisome proliferator-activated receptor gamma (PPARg) signaling pathway (AID 743191; calls by dose curve; further: nearly all actives have a fitted effect of over 30% in size); settings: HEK293H PPARg-UAS-bla, beta-lactamase ratio, antagonist, 17 h; ratio activity, negative = inhibition: at 62.6 µM (top of the series) unless noted
How it was run: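 GeneBLAzer PPARg UAS-bla HEK293H cells, 5 h post-plating, exposed to compounds 17 h at 37C. LiveBLAzer B/G FRET substrate added for 1 h at room temperature; beta-lactamase reporter read by fluorescence intensity.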

[4] = qHTS assay to identify small molecule antagonists of the peroxisome proliferator-activated receptor gamma (PPARg) signaling pathway - cell viability counter screen (AID 743194); settings: PPARg-bla HEK293H viability, CellTiter-Glo luminescence, 17 h, co-treated with 50 nM rosiglitazone; activity change, negative = cytotoxicity: at 62.6 µM (top of the series) unless noted; further: nearly all actives have a fitted effect of over 55% in size
How it was run: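 Cytotoxicity counter screen in PPARg-bla HEK293H cells, same wells as reporter assay. Compounds plus 50 nM rosiglitazone (final) for 17 h at 37 C, then viability read by CellTiter-Glo luminescence.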

[5] = qHTS assay for small molecule agonists of the antioxidant response element (ARE) signaling pathway - cell viability counter screen (AID 743203; calls by dose curve; further: nearly all actives have a fitted effect of over 55% in size); settings: ARE-bla HepG2 viability, CellTiter-Glo luminescence, 16 h; viability change, negative = cytotoxic: at 73.3 µM (top of the series)
How it was run: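 Viability counter screen: stably transfected ARE-bla HepG2 line, 16 hrs compound exposure at 37C/5% CO2, ATP-based CellTiter-Glo luminescence measured in the reporter wells.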

[6] = qHTS assay for small molecule activators of the heat shock response signaling pathway - cell viability counter screen (AID 743209); settings: HSE-bla HeLa viability, CellTiter-Glo luminescence, 5 h; activity change, negative = cytotoxicity: at 62.6 µM (top of the series) unless noted; further: nearly all actives have a fitted effect of over 50% in size
How it was run: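 Viability of HSE-bla HeLa cells is measured with CellTiter-Glo in the wells already used for the reporter read. Compound exposure lasts 5 h at 37 C, and luminescence is read after 30 min at room temperature.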

[7] = qHTS assay for small molecule activators of the heat shock response signaling pathway (AID 743210; active means well fitted activation curve with a large enough effect in the signal ratio in the repeat runs, with a control signal flat, not every such curve was filed as active; inconclusive means weak or mixed curves; the % refers to the signal ratio); settings: HeLa HSE-bla reporter, beta-lactamase ratio, 5 h; activation: at 62.6 µM (top of the series)
How it was run: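 Beta-lactamase reporter read-out: FRET substrate fluorescence after 2.5 h at RT, following 5 h compound treatment at 37 C of HeLa cells carrying HSE-driven bla reporter; quantitative HTS format.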

[8] = target: Peroxisome proliferator-activated receptor delta (Homo sapiens) (UniProt Q03181); experiment: qHTS assay to identify small molecule agonists of the peroxisome proliferator-activated receptor delta (PPARd) signaling pathway (AID 743212; calls by dose curve); settings: HEK293H PPARd-UAS-bla, beta-lactamase FRET ratio, 17 h; activation: at 62.6 µM (top of the series) unless noted
How it was run: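 Read-out: beta-lactamase FRET fluorescence after 2 h room-temperature incubation with LiveBLAzer B/G substrate. Cells were HEK293H carrying a UAS-bla reporter for PPARd, treated at 37 C with DMSO-dissolved compounds.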

[9] = qHTS assay to identify small molecule antagonists of the peroxisome proliferator-activated receptor delta (PPARd) signaling pathway - cell viability counter screen (AID 743213); settings: PPARd-bla HEK293H viability, CellTiter-Glo luminescence, 17 h; viability change, negative = cytotoxic: at 62 µM (top of the series) unless noted; further: nearly all actives have a fitted effect of over 50% in size
How it was run: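 Agonist-stimulated (L165041, 300 nM final) HEK293H PPARd UAS-bla cells are exposed to compounds for 17 h at 37 C, and ATP-based luminescence (CellTiter-Glo) from the same wells reports cytotoxicity.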

[10] = target: Peroxisome proliferator-activated receptor delta (Homo sapiens) (UniProt Q03181); experiment: qHTS assay to identify small molecule antagonists of the peroxisome proliferator-activated receptor delta (PPARd) signaling pathway (AID 743215; active means well fitted inhibition curve with a large enough effect in the signal ratio in the repeat runs, not every such curve was filed as active; inconclusive means weak or mixed curves, or effect the other way; inactive means no such curve, though single readings can be large or run the other way; the % refers to the signal ratio); settings: HEK293H PPARd-UAS-bla, beta-lactamase FRET ratio, antagonist, 17 h; ratio activity, negative = inhibition: at 62 µM (top of the series) unless noted
How it was run: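 Plated HEK293H PPARd-bla cells rested 5 h at 37 C and 5% CO2. Compound, then agonist L165041 at 300 nM final, was added; 17 h at 37 C followed. Substrate loading, 2 h room temperature, fluorescence measured.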

[11] = target: Bile acid receptor (Homo sapiens) (UniProt Q96RI1); experiment: qHTS assay to identify small molecule antagonists of the farnesoid-X-receptor (FXR) signaling pathway (AID 743217; active means well fitted inhibition curve with a large enough effect in the signal ratio in the repeat runs, not every such curve was filed as active; inconclusive means weak or mixed curves, or effect the other way; inactive means no such curve, though single readings can be large or run the other way; the % refers to the signal ratio); settings: HEK293T FXR-UAS-bla, beta-lactamase ratio, CDCA-stimulated, 16 h; activity change, negative = inhibition: at 62.6 µM (top of the series) unless noted
How it was run: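 Screen of the Tox21 10K library in quantitative HTS format using FXR-UAS-bla HEK 293T reporter cells. Agonist chenodeoxycholic acid, 50 uM final, added with compounds; 16 h incubation at 37 °C; beta-lactamase FRET fluorescence measured.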

[12] = qHTS assay to identify small molecule agonists of the farnesoid-X-receptor (FXR) signaling pathway - cell viability counter screen (AID 743218); settings: FXR-bla HEK293T viability, CellTiter-Glo luminescence, 16 h; viability change, negative = cytotoxic: at 62.6 µM (top of the series) unless noted; further: nearly all actives have a fitted effect of over 45% in size
How it was run: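 Viability of FXR-bla HEK 293T cells is measured by ATP-based CellTiter-Glo luminescence following 16 h compound treatment at 37 C and a prior 2 h room-temperature beta-lactamase substrate step.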

[13] = target: Bile acid receptor (Homo sapiens) (UniProt Q96RI1); experiment: qHTS assay to identify small molecule agonists of the farnesoid-X-receptor (FXR) signaling pathway (AID 743220; active means well fitted activation curve with a large enough effect in the signal ratio in the repeat runs, not every such curve was filed as active; inconclusive means weak or mixed curves, or effect the other way; the % refers to the signal ratio); settings: HEK293T FXR-UAS-bla, beta-lactamase FRET ratio, 16 h; activation: at 62.6 µM (top of the series) unless noted
How it was run: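 FXR-UAS-bla HEK 293T cells carrying a UAS-driven beta-lactamase reporter were plated for 5 h at 37C/5% CO2, then exposed to DMSO-dissolved Tox21 10K compounds for 16 h at 37C. A LiveBLAzer B/G FRET substrate was loaded for 2 h at room temperature before fluorescence reading.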

[14] = target: Vitamin D3 receptor (Homo sapiens) (UniProt P11473); experiment: qHTS assay to identify small molecule agonists of the vitamin D receptor (VDR) signaling pathway (AID 743222; calls by dose curve; on activation: on the % scale 0 is the no-effect control and ±100 the full control effect); settings: HEK293T VDR-UAS-bla, beta-lactamase FRET ratio, 16 h; activation: at 63.5 µM (top of the series) unless noted
How it was run: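 Fluorescence from cleaved LiveBLAzer B/G FRET substrate served as readout. VDR-bla cells had been treated 16 h at 37C with test compounds in DMSO, following a 4 h settling period, and substrate was loaded for 2 h at RT.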

[15] = target: Vitamin D3 receptor (Homo sapiens) (UniProt P11473); experiment: qHTS assay to identify small molecule antagonists of the vitamin D receptor (VDR) signaling pathway (AID 743223; active means well fitted inhibition curve with a large enough effect in the signal ratio in the repeat runs, not every such curve was filed as active; inconclusive means weak or mixed curves, or effect the other way; inactive means no such curve, though single readings can be large or run the other way; the % refers to the signal ratio); settings: VDR-UAS-bla HEK293T, beta-lactamase FRET ratio, 16 h; activity change, negative = inhibition: at 61 µM (top of the series) unless noted
How it was run: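 Fluorescence from LiveBLAzer B/G FRET substrate, read after 2 h at room temperature, reflects beta-lactamase reporter activity in VDR-bla cells treated 16 h at 37C with compounds and agonist 1alpha,25-dihydroxyvitamin D3 (3 nM final).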

[16] = qHTS assay to identify small molecule agonists of the vitamin D receptor (VDR) signaling pathway - cell viability counter screen (AID 743224); settings: VDR-bla HEK293T viability, CellTiter-Glo luminescence, 16 h; activity change, negative = cytotoxicity: at 62.6 µM (top of the series) unless noted; further: nearly all actives have a fitted effect of over 50% in size
How it was run: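 Compounds were pin-transferred onto VDR-bla cells plated 4 h earlier; following 16 h incubation at 37C, cell viability was quantified by CellTiter-Glo luminescence after 30 min at room temperature.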

[17] = qHTS assay to identify small molecule antagonists of the vitamin D receptor (VDR) signaling pathway - cell viability counter screen (AID 743225); settings: VDR-bla HEK293T viability, CellTiter-Glo luminescence, 16 h; viability change, negative = cytotoxic: at 61 µM (top of the series) unless noted; further: nearly all actives have a fitted effect of over 50% in size
How it was run: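 Cells (VDR-UAS-bla HEK 293T) are plated, rested 4 h at 37C, dosed with compound and 3 nM final 1-alpha,25-dihydroxy vitamin D3, and incubated 16 h. Viability is taken from CellTiter-Glo luminescence in the reporter wells.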

[18] = qHTS assay for small molecule agonists of the antioxidant response element (ARE) signaling pathway (AID 743202; active means well fitted activation curve with a large enough effect in the signal ratio in the repeat runs, not every such curve was filed as active; inconclusive means weak or mixed curves, or effect the other way; inactive means no such curve, though single readings can be large or run the other way; the % refers to the signal ratio); settings: HepG2 ARE-bla reporter, beta-lactamase FRET, 16 h; activation: at 73.3 µM (top of the series) unless noted
How it was run: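 HepG2 ARE-bla reporter line, 2,000 cells/well; 5 h preincubation 37 C/5% CO2; compound (DMSO) 16 h 37 C; B/G FRET substrate 2 h RT; fluorescence intensity.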

[19] = qHTS assay to identify small molecule antagonists of the farnesoid-X-receptor (FXR) signaling pathway - cell viability counter screen (AID 743221; active means well fitted cell-killing curve with a large enough effect in the repeat runs, not every such curve was filed as active; inconclusive means weak or mixed curves, or effect the other way; inactive means no such curve, though single readings can be large or run the other way; further: nearly all actives have a fitted effect of over 50% in size); settings: FXR-bla HEK293T viability, CellTiter-Glo luminescence, 16 h; activity change, negative = cytotoxicity: at 62.6 µM (top of the series)
How it was run: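 Quantitative HTS of the Tox21 10K library run in parallel with the beta-lactamase reporter read. HEK 293T cells carrying a UAS-driven bla reporter got compound and 50 uM CDCA (final) for 16 h; ATP-based luminescence followed.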
Potency means the concentration at half of the fitted maximal effect; tags describe the fitted curve by direction and shape or compound fluorescence and quenching.

Sequence of UniProt Q96RI1 (Q96RI1 whole entry, looked up): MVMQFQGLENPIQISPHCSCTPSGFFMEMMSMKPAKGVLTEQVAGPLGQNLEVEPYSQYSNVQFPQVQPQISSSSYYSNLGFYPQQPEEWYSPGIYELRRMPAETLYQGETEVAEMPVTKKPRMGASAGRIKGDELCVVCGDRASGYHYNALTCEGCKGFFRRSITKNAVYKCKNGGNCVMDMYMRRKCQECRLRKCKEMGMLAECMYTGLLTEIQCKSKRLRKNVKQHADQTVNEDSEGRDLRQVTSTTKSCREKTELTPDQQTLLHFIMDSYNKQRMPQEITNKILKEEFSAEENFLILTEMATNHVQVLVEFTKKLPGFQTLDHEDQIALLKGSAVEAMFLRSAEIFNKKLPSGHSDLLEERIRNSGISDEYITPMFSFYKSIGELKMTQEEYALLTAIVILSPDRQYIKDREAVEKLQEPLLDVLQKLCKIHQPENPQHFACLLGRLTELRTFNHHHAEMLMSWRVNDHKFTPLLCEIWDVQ
Sequence of UniProt P37231 (P37231 whole entry, looked up): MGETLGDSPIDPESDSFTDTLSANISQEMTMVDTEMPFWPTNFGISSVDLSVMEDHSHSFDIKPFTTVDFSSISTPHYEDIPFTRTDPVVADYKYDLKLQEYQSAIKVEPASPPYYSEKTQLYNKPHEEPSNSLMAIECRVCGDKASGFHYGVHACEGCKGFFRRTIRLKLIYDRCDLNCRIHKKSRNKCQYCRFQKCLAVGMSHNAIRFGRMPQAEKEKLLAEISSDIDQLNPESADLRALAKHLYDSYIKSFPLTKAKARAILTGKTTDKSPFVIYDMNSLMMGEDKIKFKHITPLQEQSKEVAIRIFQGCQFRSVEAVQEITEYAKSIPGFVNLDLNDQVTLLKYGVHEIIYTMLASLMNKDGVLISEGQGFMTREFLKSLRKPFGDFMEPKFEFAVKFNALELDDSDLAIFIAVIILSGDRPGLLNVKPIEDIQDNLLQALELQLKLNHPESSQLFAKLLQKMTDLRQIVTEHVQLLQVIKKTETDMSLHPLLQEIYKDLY
Sequence of UniProt Q03181 (Q03181 whole entry, looked up): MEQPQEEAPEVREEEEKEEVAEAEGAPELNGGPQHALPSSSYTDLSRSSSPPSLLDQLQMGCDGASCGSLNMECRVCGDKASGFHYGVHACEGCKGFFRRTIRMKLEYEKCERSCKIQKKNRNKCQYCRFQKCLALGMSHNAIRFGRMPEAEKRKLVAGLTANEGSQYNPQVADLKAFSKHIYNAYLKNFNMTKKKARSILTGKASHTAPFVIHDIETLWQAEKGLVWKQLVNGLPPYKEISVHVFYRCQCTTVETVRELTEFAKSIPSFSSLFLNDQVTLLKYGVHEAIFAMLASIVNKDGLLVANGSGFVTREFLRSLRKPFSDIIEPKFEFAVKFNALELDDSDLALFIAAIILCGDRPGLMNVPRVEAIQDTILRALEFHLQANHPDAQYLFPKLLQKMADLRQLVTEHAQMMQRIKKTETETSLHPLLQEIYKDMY
Sequence of UniProt P11473 (P11473 whole entry, looked up): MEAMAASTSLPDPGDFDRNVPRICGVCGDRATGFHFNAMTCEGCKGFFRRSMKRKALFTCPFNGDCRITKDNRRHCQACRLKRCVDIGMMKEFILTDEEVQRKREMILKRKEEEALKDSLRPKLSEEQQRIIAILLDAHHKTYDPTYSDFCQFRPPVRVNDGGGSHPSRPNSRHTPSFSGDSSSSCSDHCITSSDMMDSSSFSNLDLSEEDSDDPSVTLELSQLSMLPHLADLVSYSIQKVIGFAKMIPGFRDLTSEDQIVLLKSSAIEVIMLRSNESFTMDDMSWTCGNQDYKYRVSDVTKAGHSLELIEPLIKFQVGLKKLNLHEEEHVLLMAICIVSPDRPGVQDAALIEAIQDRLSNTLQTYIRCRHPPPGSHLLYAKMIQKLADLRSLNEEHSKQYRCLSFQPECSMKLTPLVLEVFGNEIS

CCCCCCCCCCCCCC[P+](CCCC)(CCCC)CCCC
inconclusive: Potency [2] 54.6 µM [cytotoxic, single point] and 24.5 µM [cytotoxic, full curve] | Potency [3] 12.2 µM [cytotoxic, full curve] and 21.9 µM [cytotoxic] | Potency [7] 22.6 µM [cytotoxic] and 26.5 µM | Potency [8] 30.7 µM [falling, full curve] and 24.5 µM [falling, full curve] | Potency [10] 15.4 µM [cytotoxic, full curve, poor fit] and 30.9 µM [cytotoxic, partial curve] | Potency [11] 61.3 µM [cytotoxic, single point] and 61.6 µM [cytotoxic, single point] | Potency [13] 24.4 µM [cytotoxic] and 61.6 µM [cytotoxic, single point] | Potency [14] 24.4 µM [cytotoxic, full curve] and 30.9 µM [cytotoxic, full curve, poor fit]
active: Potency [1] 68.2 µM and 54.5 µM | Potency [4] 3.45 µM and 3.47 µM | Potency [5] 15.3 µM and 10.9 µM | Potency [6] 6.88 µM and 13.8 µM | Potency [9] 7.72 µM and 11 µM | Potency [12] 19.4 µM and 24.5 µM | Potency [15] 19.4 µM and 24.5 µM | Potency [16] 6.88 µM and 7.76 µM | Potency [17] 6.88 µM and 7.76 µM

CCCN(CCC)c1c([N+](=O)[O-])cc(C(F)(F)F)c(N)c1[N+](=O)[O-]
active: Potency [12] 38.8 µM | Potency [16] 13.8 µM
inconclusive: Potency [1] 24.3 µM [falling, partial curve, poor fit] | Potency [2] 54.8 µM [cytotoxic, single point] | Potency [3] 61.5 µM [cytotoxic, single point] | Potency [18] 68.4 µM [falling, single point] | Potency [7] 48.9 µM [cytotoxic, partial curve] | Potency [8] 54.8 µM [single point] | Potency [10] 61.5 µM [cytotoxic, single point] | Potency [11] 54.8 µM [inhibitor] | Potency [13] 54.8 µM [cytotoxic, single point] | Potency [19] 54.8 µM [falling, single point] | activation [14] 13.1% | Potency [15] 21.8 µM

N=C1N=C(N)c2cc3ccccc3cc21
inconclusive: Potency [1] 8.63 µM [falling, full curve] | Potency [2] 49 µM [fluorescent] | Potency [3] 21.9 µM [fluorescent] | Potency [18] 27.3 µM [phenotype inactive, partial curve] | Potency [7] 41.1 µM | Potency [9] 8.63 µM [cytotoxic] | Potency [11] 56.5 µM [fluorescent] | Potency [14] 61.6 µM [fluorescent] | Potency [15] 58.2 µM [fluorescent] | Potency [17] 17.4 µM [cytotoxic, partial curve, poor fit]
active: Potency [12] 44.8 µM | Potency [19] 54.9 µM | Potency [16] 49 µM
